According to ChEMBL document CHEMBL1157539, “Thousands of chemical starting points for antimalarial lead identification” (Nature, 2010):
In all, about 13,000 compounds were measured (“IFI”: median about 4, highest 2% from about 17 on). The list shows a part of the results.

Experiment: GSK_TCMDC: Inhibition Frequency Index (IFI). The number of non-kinase HTS assays where a compound showed > 50 % inhibition, expressed as a percentage of the number of such assays in which the compound was tested (-0 is zero)
Type: functional
Work on `Cc1cc2c(cc1C(F)(F)F)N(C(=O)Nc1cc(OCCN(C(C)C)C(C)C)cc(C(F)(F)F)c1)CC2` yielded an IFI of 6.02%.
With `COc1cc2nc(NC3CCN(Cc4ccccc4)CC3)nc(N)c2cc1OC` the IFI was 3.79%.
Compound `CCN(CC)CC(O)c1cc(-c2ccc(C)cc2)nc2c(C)cc(C)cc12` (centres undefined) has an IFI of 2.16%.
Work on `O=c1cc(NCCCNC2CCOc3c(Cl)cccc32)[nH]c2ccccc12` (centres undefined) yielded an IFI of 2.88%.
With `O=C(Nc1cccc(OCCN2CCCC2)c1)Nc1ccc(Cl)c(Cl)c1` the IFI was 2.92%.
Compound `CCc1nc2c(N)nc(N)nc2nc1-c1ccc(OC)cc1` has an IFI of 1.47%.
In the case of `O=C(/C=C/c1c(Cl)cccc1Cl)NC1CCC(CN2CCC(c3c[nH]c4ccncc34)CC2)CC1` (centres undefined), the IFI is reported as 6.34%.
Work on `CC1(C)CCC(=Cc2ccc(Cl)cc2)CC1(O)Cn1ccnc1` (centres undefined) yielded an IFI of 7.25%.
`CC(C)(C)c1ccc(CN2CCC(CNC(=O)c3cc(-c4ccccc4F)cs3)C2)cc1` (centres undefined) gave an IFI of 17%.
In the case of `Cc1cc(=NN=CC=Cc2ccccc2)c2ccc(F)cc2[nH]1`, the IFI is reported as 0.74%.
`CCNC(=O)Nc1ccc(-c2ccc(-c3nc4cccc(C)c4[nH]3)s2)cc1` showed an IFI of 4%.
Work on `COc1cc2c(cc1OCCN1CCC(N3CCCCC3)CC1)N(C(=O)/C=C/c1ccccc1OC(F)(F)F)CC2` yielded an IFI of 10.9%.
`Cc1nc(-c2cccc3c(NC(=O)N4CCc5cc6nccc(N7CCN(C)CC7)c6cc54)cccc23)no1` showed an IFI of 4.17%.
With `COc1cccc(C(NC(=O)c2ccccc2)c2ccc3cccnc3c2O)c1` (centres undefined) the IFI was 7.35%.
`CN1Cc2cc(NC(=O)/C=C/c3ccccc3Cl)ccc2C(C)(C)C1` gave an IFI of 0.74%.
`N=C(N)NC(=O)Nc1cc(Br)c(Cl)c(C(F)(F)F)c1` showed an IFI of 11.1%.
`O=C(NCCCCN1CCC(c2ccc3c(c2OCCO)CCCC3)CC1)c1ccc2oc(-c3ccc(C(F)(F)F)cc3)cc2c1` showed an IFI of 9.01%.
For `COc1ccc(C(=O)CCC(=O)N(Cc2ccc(-c3ccc(CNCCc4ccc(S(C)(=O)=O)cc4)cn3)cc2)C2CCN(Cc3ccccc3)CC2)cc1F`, the IFI was 8.39%.
Work on `CCOc1ccc(-c2nonc2NC(=O)CC(C)C)cc1OCC` yielded an IFI of -0%.
Work on `O=C(Nc1ccc(C(F)(F)F)cc1)c1ccc(S(=O)(=O)NC2CCN(Cc3ccccc3)C2)cc1` (centres undefined) yielded an IFI of 8.43%.
Compound `COc1ccc2nc3cc(Cl)ccc3c(Nc3ccc(O)c(CNC(C)C)c3)c2c1` has an IFI of 7.64%.
With `CCCC(C(CC1CCC(C)CC1)C(=O)NC(CCCNc1ncccn1)C(=O)Nc1nccs1)N(O)C=O` (centres undefined) the IFI was 4.44%.
Work on `Nc1cccc(CNCc2ccc(-c3cccc(-c4nc5cc(C(F)(F)F)ccc5[nH]4)c3)cc2)c1` yielded an IFI of 15.2%.
Compound `Cc1ccc2nc(-c3ccc(C(=O)NCc4ccc(Cl)c(Cl)c4)cc3)[nH]c2c1C` has an IFI of 2.9%.
With `c1ccc(C(c2ccccc2)N2CCN(C(c3cccnc3)c3nnnn3C3CCCC3)CC2)cc1` (centres undefined) the IFI was 2.44%.
`N=C(Cc1ccc(Cl)cc1)NCCN1CCCCCC1` gave an IFI of 0.71%.
`CC[C@H](NC(=O)c1c(CN2CCC(N3CCCCC3)CC2)c(-c2ccccc2)nc2c(Cl)c(O)ccc12)c1ccccc1` gave an IFI of 0.72%.
Work on `Cc1nnc2sc(-c3cccc(NC(=O)c4ccc(N5CCCCC5)c([N+](=O)[O-])c4)c3)nn12` yielded an IFI of 1.47%.
`O=C(n1c(-c2cc3ccccc3n2C(=O)C(F)(F)F)cc2ccccc21)C(F)(F)F` showed an IFI of 9.79%.
In the case of `O=C(/C=C/c1ccc(Cl)c(Cl)c1)NCCCCCCN1CCCN(C(=O)Nc2cccc(C(F)(F)F)c2)CC1`, the IFI is reported as 8.26%.
In the case of `CCCC(=O)NC(c1ccc(C)cc1)c1ccc2cccnc2c1O` (centres undefined), the IFI is reported as 5.07%.
`CCn1c(SCc2ccc(F)cc2)nc2sc3c(c2c1=O)CCN(C)C3` gave an IFI of 0.85%.
Work on `COc1ccc2nccc([C@@H](O)CN3CCC(NS(=O)(=O)c4cc5c(cc4Cl)SCC(=O)N5)CC3)c2c1` yielded an IFI of 0.74%.
For `O=C(Nc1cccc(Cl)c1)N[C@H]1CCN(Cc2ccc(OCCCN3CCCCC3)cc2)C1`, the IFI was 5.63%.
For `CCCOc1cc2c(cc1OCCC)C(C=Cc1ccc(Cl)cc1Cl)=NC(C)C2` (centres undefined), the IFI was 19%.
With `CC(C)CCNC(=N)Nc1ccc(OCCCCCOc2ccc(NC(=N)NCCC(C)C)cc2)cc1` the IFI was 6.47%.
For `Cc1cccc2nc(-c3ccc(-c4ccc(CN5CCCC(O)C5)cc4)cc3)[nH]c12` (centres undefined), the IFI was 2.82%.
`CC(C)(C)COC(=O)c1ccc(NC(=O)N[C@@H](Cc2ccc(O)cc2)C(=O)NC2CCN(Cc3ccc(O)cc3)C2)cc1` (some centres undefined) showed an IFI of 3.4%.
Compound `CC(C)C[C@H](NC(=O)c1ccc(OCCN2CCOCC2)cc1)C(=O)N[C@H](/C=N/N1CCN(C)C1=O)CCc1ccccc1` has an IFI of 2.75%.
Work on `CCCCCn1c(Sc2ccc(C#N)c([N+](=O)[O-])c2)nnc1-c1cc(OC)cc(OC)c1` yielded an IFI of 6.43%.
For `Cc1ccccc1N1CCN(c2ccc(C(=O)Nc3ccccc3)cc2)CC1`, the IFI was -0%.
In the case of `CN(C)CCNC(=O)c1ccc2c(c1)ncn2-c1cc(OCc2ccccc2C(F)(F)F)c(C(N)=O)s1.CN(C)CCNC(=O)c1ccc2ncn(-c3cc(OCc4ccccc4C(F)(F)F)c(C(N)=O)s3)c2c1`, the IFI is reported as 3.68%.
`CCc1c(C)nc(-n2nc(C)cc2NC(=O)CC(c2ccccc2)c2ccccc2)[nH]c1=O` gave an IFI of 9.8%.
Compound `CN(C(=O)c1nn(-c2ccccn2)c2nccc(-c3cccs3)c12)C1CCCCC1` has an IFI of 7.14%.
`COc1cc(Nc2nccc(N3CCC(NC(=O)Nc4cccc(C(C)=O)c4)C3)n2)cc(OC)c1OC` (centres undefined) showed an IFI of 4.62%.
`CC(=O)Nc1ccc(C(=O)Nc2cccc(-c3cccc(-c4nc5cc(F)ccc5[nH]4)c3)c2)cn1` showed an IFI of 0.9%.
In the case of `CCc1cn2c3c(cc(C(=O)N[C@@H](Cc4ccccc4)[C@H](O)CNC4CCC4)cc13)N(C)S(=O)(=O)CC2`, the IFI is reported as 4.41%.
Compound `CCCNC(=O)c1cncc(-c2cccc(CNC3Cc4ccccc4C3)c2)c1` has an IFI of 4.55%.
Work on `COc1ccc(-c2ccc(NC(=O)c3cccc(Cl)c3)cc2)cc1CN1CCC(O)CC1` yielded an IFI of 5.26%.
`CCCN(CCC)C(=O)c1cc(-c2cccc(C)c2)nc2ccccc12` showed an IFI of 5.88%.
In the case of `CCCCc1ccc(CCNCCCCCCNCCc2ccc(O)c(O)c2)cc1`, the IFI is reported as 10.3%.
With `COc1ccc(C2CC(c3cccs3)=NN2C(=O)COc2cccc3c2CCCC3O)cc1OC` (centres undefined) the IFI was 0%.
Work on `CS(=O)(=O)N1CC2(CCN(CCC(NC(=O)NCc3ccc(Cl)c(Cl)c3)c3ccc(Cl)c(Cl)c3)CC2)c2ccccc21` (centres undefined) yielded an IFI of 5.44%.
In the case of `Cc1cccc2nc(-c3ccc(-c4ccc(NC(=O)CN5CCN(C)CC5)cc4)s3)[nH]c12`, the IFI is reported as 8.11%.
With `Brc1ccccc1CNc1ccnc(NCCn2ccnc2)n1` the IFI was 2.08%.
`CC1(C)NC(N)=NC(=N)N1OCCSc1ccccc1` gave an IFI of 3.73%.
With `CCC1(CC)NC(N)=NC(=N)N1OCc1ccc(Cl)c(Cl)c1` the IFI was 5.97%.
`CCCCc1cc(=O)oc2cc(C)cc(OCc3ccccc3F)c12` showed an IFI of 2.05%.
`Cc1cccc2nc(-c3ccc(-c4cccc(CNCCCN5CCCC5=O)c4)cc3)[nH]c12` gave an IFI of 3.96%.
With `FC(F)(F)c1ccc2[nH]c(-c3cccc(-c4cccc(CNCCN5CCNCC5)c4)c3)nc2c1` the IFI was 12.8%.
Compound `NOCCCCOc1ccc(Cl)cc1` has an IFI of -0%.
For `Cc1noc(-c2cccs2)c1C(=O)NCCc1cccc(Cl)c1`, the IFI was -0%.
`CCNc1cc(C(=O)N[C@@H](Cc2cc(F)cc(F)c2)[C@H](O)CNCc2cccc(C(F)(F)F)c2)cc(N2CCCCS2(=O)=O)c1` showed an IFI of 5.67%.
Work on `COc1cc(CN=C(S)NN=C(C)c2ccccn2)cc(OC)c1OC` yielded an IFI of 5.97%.
`CC(=O)Nc1ncc(C(=O)Nc2cccc(-c3ccc(-c4nc5ccccc5[nH]4)cc3)c2)s1` showed an IFI of 6.48%.
Compound `COc1ccc(NC(=O)[C@H](CC(C)C)Nc2cc(C)nc(NCCOc3ccccc3)n2)cc1` has an IFI of 11.6%.
`COc1ccc2nccc([C@@H](O)CN3CCC(NCc4ccc5c(c4)nnn5C(C)C)CC3)c2c1` gave an IFI of 2.14%.
With `Fc1cc(Cl)ccc1Nc1ccnc2cc(I)ccc12` the IFI was 2.86%.
In the case of `CC1(C)NC(N)=NC(=N)N1OCCCOc1ccccc1Cl`, the IFI is reported as 4.32%.
In the case of `Cc1cc(CNCCCCCCNCc2ccc(Cl)cc2)ccc1O`, the IFI is reported as 1.49%.
`NCc1cccc(-c2ccc(CNC3CCN(Cc4ccccc4)CC3)cc2)c1` gave an IFI of 2.88%.
In the case of `CCCN1CCN(c2ccc(NS(=O)(=O)c3ccc(C(=O)Nc4ccc(Cl)cc4)cc3)cc2)CC1`, the IFI is reported as 1.69%.
`Cc1ccc(C)c(S(=O)(=O)NCC2CCN(Cc3ccc(O)cc3)CC2)c1` showed an IFI of 0%.
Compound `CN1CC[C@@H](Oc2cc(Nc3nc(-c4ccc(C#N)cc4)cs3)ccc2Cl)C1` has an IFI of 8.87%.
In the case of `O=C(Nc1ccc(OC2CCN(Cc3ccccc3)C2)c(Cl)c1)c1ccsc1` (centres undefined), the IFI is reported as 7.69%.
Work on `O=C(Nc1cccc(C(F)(F)F)c1)c1cccc(S(=O)(=O)NCC2CCCN(CC3CCCCC3)C2)c1` (centres undefined) yielded an IFI of 7.14%.
Compound `CC(C)c1ccc(C(NC(=O)C2CCCCC2)c2ccc3cccnc3c2O)cc1` (centres undefined) has an IFI of 2.07%.
For `CC1CCC(C[C@@H](C(=O)N[C@H](C(=O)Nc2nccs2)[C@@H](C)O)[C@H](CCC(F)(F)F)N(O)C=O)CC1` (some centres undefined), the IFI was 0.78%.
`Cc1ccc(NC(=O)c2ccc(CN3CCCN(Cc4cccc(C#N)c4)CC3)cc2)cc1F` gave an IFI of 11.6%.
Compound `COc1ccc2nc3cc(Cl)ccc3c(NCCCCNc3c4ccc(Cl)cc4nc4ccc(OC)cc34)c2c1` has an IFI of 2.94%.
For `CCOC(=O)c1nc2ccc(SC3CCCCC3)cn2c1Br`, the IFI was 1.44%.
Compound `N#Cc1ccc(C(=O)Nc2cccc(-c3ccc(CN4CCCC4)cc3)c2)cc1` has an IFI of 3.85%.
Work on `NC(=O)c1cccc(Nc2nccc(Nc3ccc(Oc4cccc(Cl)c4)c(Cl)c3)n2)c1` yielded an IFI of 5.11%.
`CCCCCC(=O)NCC(NCCCNc1cc(=O)c2ccccc2[nH]1)c1cc(Br)cc(Br)c1` (centres undefined) gave an IFI of 2.34%.
`CC(=O)Nc1nc(C(=O)Nc2cccc(-c3ccc(-c4nc5cccc(C)c5[nH]4)s3)c2)cs1` gave an IFI of 1.75%.
In the case of `COc1ccc(-c2cccc(NC(=O)c3cccc(Cl)c3)c2)cc1CN1CCN(C)CC1`, the IFI is reported as 8.74%.
For `CCSc1ccccc1COc1c(C)nc(N)nc1N`, the IFI was 1.4%.
`CCN(CC)CCN(Cc1ccc(-c2ccc(C(F)(F)F)cc2)cc1)C(=O)Cn1c(CCc2ccc(F)c(C#N)c2)nc(=O)c2ccccc21` gave an IFI of 6.21%.
Work on `O=C(NCC1CC1)C1CCN(C(c2ccc(Cl)cc2)c2ccc(Cl)cc2)CC1` yielded an IFI of 3.4%.
